# Measurements published in article PMC12615815.
# Target: Small ribosomal subunit protein bS1 (UniProt P0AG67)
# Experiment: cross-link between two proteins; cross-linking mass spectrometry
# Sequence of Large ribosomal subunit protein uL1 (chain, as listed by the source): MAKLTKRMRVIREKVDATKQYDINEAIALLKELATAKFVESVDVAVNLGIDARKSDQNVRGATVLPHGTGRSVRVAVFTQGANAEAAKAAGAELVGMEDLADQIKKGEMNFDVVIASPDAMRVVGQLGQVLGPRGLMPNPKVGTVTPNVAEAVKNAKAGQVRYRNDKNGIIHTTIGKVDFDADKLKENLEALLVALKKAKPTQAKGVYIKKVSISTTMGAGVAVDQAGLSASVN
substance,measurement,value
Large ribosomal subunit protein uL1,listed as a hit,yes
